Assay [1] deals with T1, human IL2Rβ Fc fusion protein (human, UniProt P14784 27-239).
T1 construct: also called ILR2β; CD122; not shown: Fc part
T1 sequence (looked up): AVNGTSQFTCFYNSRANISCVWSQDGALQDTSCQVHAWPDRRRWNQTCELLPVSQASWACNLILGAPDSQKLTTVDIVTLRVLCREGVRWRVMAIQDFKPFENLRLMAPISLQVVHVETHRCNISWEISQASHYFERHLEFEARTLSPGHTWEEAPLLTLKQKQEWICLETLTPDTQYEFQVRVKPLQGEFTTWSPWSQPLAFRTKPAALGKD
Nature of the assay: ELISA on coated receptor-Fc, anti-His detection; grade by OD450 (medium: 0.7-1.5). As to the method:
Mammalian cell-produced agonists were characterized for their binding activities to respective IL2Rβ and IL2Rα receptors by ELISA. Briefly, 384 well plate was immobilized with human IL2Rα and IL2Rβ Fc fusion proteins at a final concentration of 2 μg/mL in 1× PBS in total volume of 25 μL per well. The plate was incubated overnight at 4° C. and blocked with 80 μL of superblock per well for 1 hour. The purified clones were added to IL2Rα or IL-2Rβ wells in parallel in duplicates as a titration, with the highest concentration of 1 μM, followed by a 10 point 5× serial dilution of the clones. The binding activity was detected by adding 25 μL of anti-His HRP diluted at 1:5000 in 1× PBST. In between each step, the plate was washed three times with 1× PBST using a plate washer. The plate was then developed with 25 μL of TMB substrate for five minutes and stopped by adding 25 μL of 2N sulfuric acid. The plate was read at OD450 nm Biotek plate reader and the bar graph at 1 μM of IL2 was generated with Prism 8.1 software (FIG. 2).

The target in assay [2] is T1, human IL2Rβ Fc fusion protein. The assay can be described thus: SPR (Biacore T200), receptor captured on Protein A chip, IL2 at 100 nM and 20 nM. As to the method:
(§1) The assay was run with Biacore T200 control software version 2.0. For each cycle, 1 μg/mL of human IL2Rβ or IL2Rα was captured for 60 seconds at flow rate of 10 μL/min on flow cell 2 in 1× HBSP buffer on Protein A sensor chip. 100 nM and 20 nM of HIS tag purified engineered IL2 mutant was injected onto both reference flow cell 1 and IL2Rβ or IL2Rα captured flow cell 2 for 150 seconds at flow rate of 30 μL/min followed by washing for 300 seconds. The flow cells were then regenerated with Glycine pH 2 for 60 seconds at a flow rate of 30 μL/mins. The kinetics data was analyzed with Biacore T200 evaluation software 3000. The specific binding response unit was derived from subtraction of binding to reference flow cell 1 from target flow cell 2.
For orientation: In SPR one partner is held on a chip, and binding of the other changes the refractive index at the surface.

Assay [3] concerns the target T2, human IL2Rα Fc fusion protein (human, UniProt P01589 22-213, limits assumed).
T2 construct: also called CD25; not shown: Fc part
T2 sequence (looked up): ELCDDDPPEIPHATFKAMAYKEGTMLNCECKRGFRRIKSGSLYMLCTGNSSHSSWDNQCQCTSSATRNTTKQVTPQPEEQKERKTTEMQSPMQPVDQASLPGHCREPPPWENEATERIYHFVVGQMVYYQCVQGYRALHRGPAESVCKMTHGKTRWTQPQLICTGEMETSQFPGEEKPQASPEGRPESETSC
The assay is described as above. As to the method:
as §1

The target in assay [4] is T2, human IL2Rα Fc fusion protein. The assay can be described thus: ELISA on coated receptor-Fc, anti-His detection, single point 1 µM. As for the experimental part: Back-mutations were characterized for their binding activities to IL2Rβ and IL2Rα receptors by ELISA. Briefly, 384 well plate was immobilized with human IL2Rα and IL2Rβ Fc fusion proteins at a final concentration of 2 μg/mL in 1× PBS in total volume of 25 μL per well. The plate was incubated overnight at 4° C. and blocked with 80 μL of superblock per well for 1 hour. […] The IL2 mutant binding was detected by adding 25 μL of anti-His HRP diluted at 1:5000 in 1× PBST. In between each step, the plate was washed three times with 1× PBST using a plate washer. […] The plate was then developed with 25 μL of TMB substrate for five minutes and stopped by adding 25 μl of 2N sulfuric acid. The plate was read at OD450 nm Biotek plate reader (Table 6) and the data was analyzed with Prism 8.1 software to generate bar graph (FIG. 5).

B1: WT-IL2 (IL2 with wild-type IL2Rα and IL2Rβ binding domains and T3A and C125S substitutions) (ligand)
chain: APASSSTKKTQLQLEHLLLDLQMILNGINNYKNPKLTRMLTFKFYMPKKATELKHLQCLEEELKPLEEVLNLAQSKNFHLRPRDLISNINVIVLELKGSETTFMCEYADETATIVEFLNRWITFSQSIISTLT
notes: One molecule is kept for both; also called IL2 WT; human IL2 wt
In assay [1], B1 yielded an OD450 of 0.7 to 1.5 od. Further, the dissociation constant (Kd) is 283 nM in assay [2] and 11.9 nM in assay [3]. In addition, in assay [4], the “Average OD (450 nm)” value stood at 3.85 OD450.

Broadly, the Kd is the constant that tells how readily two partners part at equilibrium. The low end stands for tighter binding, the high end for weaker binding.

(Values after patent US20250326813A1 (ELPIS BIOPHARMACEUTICALS, published 2025).)
